Measurements from paper PMC4336329 (PLoS ONE, 2015).
The whole screen tested about 310,000 compounds, of which about 2,200 (0.71%) showed an effect of 50% or more. The effect is printed as a negative number. This is one part of the list.

The compounds below were run against human ether-à-go-go-related gene (hERG) potassium channel (human, UniProt Q12809) (assay: primary screen, population patch clamp on CHO cells stably expressing hERG).
human ether-à-go-go-related gene (hERG) potassium channel, sequence (Q12809 whole entry, looked up): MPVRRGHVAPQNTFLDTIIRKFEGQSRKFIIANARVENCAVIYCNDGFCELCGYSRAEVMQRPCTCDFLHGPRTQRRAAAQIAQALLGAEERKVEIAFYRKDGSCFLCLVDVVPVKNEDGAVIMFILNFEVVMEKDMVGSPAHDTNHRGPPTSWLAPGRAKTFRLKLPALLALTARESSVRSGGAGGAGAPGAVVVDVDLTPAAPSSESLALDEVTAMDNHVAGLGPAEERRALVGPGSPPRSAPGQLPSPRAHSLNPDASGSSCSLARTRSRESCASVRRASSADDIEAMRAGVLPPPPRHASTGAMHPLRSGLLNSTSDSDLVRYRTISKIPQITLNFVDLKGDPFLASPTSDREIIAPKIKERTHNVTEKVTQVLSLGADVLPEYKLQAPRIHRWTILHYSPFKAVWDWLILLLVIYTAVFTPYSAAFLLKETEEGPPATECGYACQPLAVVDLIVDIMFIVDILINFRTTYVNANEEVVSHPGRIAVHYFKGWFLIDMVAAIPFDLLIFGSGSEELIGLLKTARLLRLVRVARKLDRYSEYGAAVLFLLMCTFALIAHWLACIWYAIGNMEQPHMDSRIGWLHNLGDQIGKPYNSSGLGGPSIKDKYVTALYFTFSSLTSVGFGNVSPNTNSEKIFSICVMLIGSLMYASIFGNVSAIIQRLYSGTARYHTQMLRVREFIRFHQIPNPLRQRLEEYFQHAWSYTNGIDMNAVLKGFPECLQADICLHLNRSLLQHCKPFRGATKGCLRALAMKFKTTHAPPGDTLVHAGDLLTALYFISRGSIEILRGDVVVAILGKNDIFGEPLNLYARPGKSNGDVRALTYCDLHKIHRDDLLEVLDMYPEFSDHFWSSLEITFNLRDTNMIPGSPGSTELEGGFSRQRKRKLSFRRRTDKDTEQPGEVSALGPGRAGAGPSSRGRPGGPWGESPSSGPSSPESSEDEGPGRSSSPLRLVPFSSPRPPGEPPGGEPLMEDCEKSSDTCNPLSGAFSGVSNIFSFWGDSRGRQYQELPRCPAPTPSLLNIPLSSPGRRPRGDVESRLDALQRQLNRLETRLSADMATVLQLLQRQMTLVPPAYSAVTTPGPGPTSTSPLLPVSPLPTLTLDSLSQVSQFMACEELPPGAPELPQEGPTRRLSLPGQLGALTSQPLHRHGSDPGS

Compared with `O=C(Nc1nnc(-c2ccccc2Cl)o1)c1cccnc1`, `O=C(Nc1nnc(-c2ccccc2Cl)o1)c1ccco1` is higher in “hERG current change (%, negative = inhibition) at 1uM” value: 6.37% for the first, 8.75% for the second.

Going from `CN(C)S(=O)(=O)N1CCN(CC(=O)Nc2ccc(Br)cc2)CC1` to `Cc1cc(C)c(C)c(S(=O)(=O)N2CCN(C(=O)CNC(=O)c3ccco3)CC2)c1C`, the “hERG current change (%, negative = inhibition) at 1uM” value rises from -6.35% to -0.97%.

First: Cc1ccc(S(=O)(=O)N(C)/N=C/C=C/c2ccccc2)cc1
Second: O=S(=O)(Nc1ccc(-c2cn3ccccc3n2)cc1)c1ccccc1
The “hERG current change (%, negative = inhibition) at 1uM” value of the first is higher: 13.1% for the first, 0.612% for the second.

Going from `Cc1cc(F)ccc1S(=O)(=O)Nc1c(C)n(C)n(-c2ccccc2)c1=O` to `COc1ccc(C(=O)Nc2ccccc2)cc1S(=O)(=O)Nc1cc(C)on1`, the “hERG current change (%, negative = inhibition) at 1uM” value falls from 15.4% to 3.83%.

Going from `O=C1Nc2ccccc2OC1CC(=O)N1CCOCC1` (stereo not drawn) to `O=C(CN1C(=O)NC2(CCCCCCC2)C1=O)N1CCOCC1`, the “hERG current change (%, negative = inhibition) at 1uM” value falls from 3.88% to -3.6%.

Going from `Cc1cc(OC(C)C(=O)N2CCN(c3ccccc3)CC2)c2c(C)c(C)c(=O)oc2c1` (stereo not drawn) to `Cc1nn(-c2ccccc2)c(N2CCCC2)c1/C=N/NC(=O)c1cc2ccccc2cc1O`, the “hERG current change (%, negative = inhibition) at 1uM” value falls from 13.5% to -2.01%.

First: COc1cc(C(F)(F)F)ccc1C(=O)NCCc1ccco1
Second: COc1ccc(C(=O)NCc2ccco2)cc1S(=O)(=O)N1CCOCC1
The “hERG current change (%, negative = inhibition) at 1uM” value of the first is lower: 5.79% for the first, 6.32% for the second.

Compared with `CN(C)c1ccc(NC(=O)Nc2ccc3snnc3c2)cc1`, `Cc1cccc(C(=O)Nc2ccc(NC(=O)c3ccccc3)cc2)c1` is higher in “hERG current change (%, negative = inhibition) at 1uM” value: 10.2% for the first, 10.9% for the second.

Going from `Cc1nc(-c2cccc(NC(=O)c3ccco3)c2)cs1` to `O=C(CSc1nnc(NC(=O)c2ccco2)s1)Nc1ccccc1Br`, the “hERG current change (%, negative = inhibition) at 1uM” value falls from 10% to 3.79%.

Compared with `COc1ccc(CNS(=O)(=O)c2cn(C)c(=O)n(C)c2=O)cc1`, `CCCN1C(=O)c2cc(C(=O)NCc3ccc(OC)cc3)ccc2C1O` (stereo not drawn) is lower in “hERG current change (%, negative = inhibition) at 1uM” value: 17.3% for the first, -0.313% for the second.

Compared with `O=S(=O)(c1ccc(Cl)s1)N1CCc2ccccc2C1`, `O=S(=O)(c1ccccc1)N1CCC(c2ccccc2)CC1` is higher in “hERG current change (%, negative = inhibition) at 1uM” value: 10.7% for the first, 20.7% for the second.

Going from `CCc1ccc(C(C(=O)NC2CCCC2)N(CCOC)C(=O)CCC(=O)Nc2cc(C)on2)cc1` (stereo not drawn) to `Cc1[nH]c2ccccc2c1SCC(=O)NC1CCCCC1`, the “hERG current change (%, negative = inhibition) at 1uM” value rises from 8.68% to 19.7%.

Compared with `CC(C)NC(=O)c1ccc(-c2ccc(Cl)c(C(F)(F)F)c2)o1`, `CC(NC(=O)c1ccccc1Cl)c1nnc(SCC(=O)Nc2ccc(C(=O)O)cc2)n1C` (stereo not drawn) is higher in “hERG current change (%, negative = inhibition) at 1uM” value: 9.75% for the first, 10.2% for the second.

First: CC(Sc1nnnn1-c1ccccc1)C(=O)Nc1ccccc1-c1ccccc1 (stereo not drawn)
Second: O=C1Nc2ccccc2C(c2ccccc2)=NC1O (stereo not drawn)
The “hERG current change (%, negative = inhibition) at 1uM” value of the first is lower: 5.44% for the first, 11.5% for the second.

Compared with `O=C(Nc1ccc(Cl)cc1)N(Cc1nc2ccccc2c(=O)[nH]1)Cc1cccs1`, `O=C(c1ccccc1)N(CCO)Cc1cc2cc3c(cc2[nH]c1=O)OCCO3` is higher in “hERG current change (%, negative = inhibition) at 1uM” value: 0.353% for the first, 13.9% for the second.

Compared with `CCOc1cc(N2CCOCC2)c(OCC)cc1NC(=O)c1ccc(C)cc1`, `COc1cccc(C(=O)Nc2cccc(-c3ccc(N4CCOCC4)nn3)c2)c1OC` is lower in “hERG current change (%, negative = inhibition) at 1uM” value: 17.1% for the first, 10.6% for the second.

Going from `Br.Clc1ccc2nc(CN3CCCc4ccccc43)cn2c1` to `CC1Cc2ccccc2N1S(=O)(=O)c1cnc(Cl)c(Br)c1` (stereo not drawn), the “hERG current change (%, negative = inhibition) at 1uM” value falls from 12.6% to 10.7%.

Compared with `CCOC(=O)c1ccc(N2C(=O)CC(N3CCOCC3)C2=O)cc1` (stereo not drawn), `Cc1c(C(=O)c2ccc(Br)cc2)c(=O)n(C)c(=O)n1C` is higher in “hERG current change (%, negative = inhibition) at 1uM” value: -1.93% for the first, 13.6% for the second.

First: COc1ccc(S(=O)(=O)N2CCC(C(=O)Nc3ccccc3C)CC2)c2cccnc12
Second: Cc1ccc(S(=O)(=O)N2CCC(C(=O)OCC(=O)N(C)Cc3ccccc3)CC2)cc1C
The “hERG current change (%, negative = inhibition) at 1uM” value of the first is lower: 5.5% for the first, 5.61% for the second.

Compared with `COc1ccccc1NC(=S)NC(NC(=O)C(C)C)C(Cl)(Cl)Cl` (stereo not drawn), `COc1ccccc1NC(=O)Nc1ccc(C)cn1` is higher in “hERG current change (%, negative = inhibition) at 1uM” value: 14% for the first, 20.8% for the second.

Compared with `N#Cc1ccc(OCC(=O)OCCCOC(=O)COc2ccc(C#N)cc2)cc1`, `COc1ccc(C(=O)c2coc3ccc(OC(C)=O)cc23)cc1` is higher in “hERG current change (%, negative = inhibition) at 1uM” value: -13.2% for the first, 20.8% for the second.

First: CCOc1ncccc1C(=O)Nc1ccc2c(c1)OCO2
Second: O=C(N/N=C/c1oc(O)c2ccccc12)c1ccccc1
The “hERG current change (%, negative = inhibition) at 1uM” value of the first is lower: 2.38% for the first, 18.6% for the second.

Going from `COc1cccc(C(=O)CN(C(=O)c2ccc(Cl)c(Cl)c2)N2C(=O)c3ccccc3C2=O)c1` to `COc1ccc(CCNC(=O)CCS(=O)(=O)c2ccc3c(c2)CCN3C(C)=O)cc1OC`, the “hERG current change (%, negative = inhibition) at 1uM” value rises from -5.42% to 5.21%.

Going from `COc1ccc(/C(C)=N\O)cc1OC` to `COc1ccc(CCNCc2sccc2C)cc1OC.Cl`, the “hERG current change (%, negative = inhibition) at 1uM” value rises from 6.66% to 9.67%.

First: CCCN(C(=O)Cc1nc(N)n[nH]1)C1(C(=O)Nc2c(C)cccc2C)CCCCC1
Second: CCC(C)(C)NC(=O)CCn1c(-c2ccccc2)cc(C(C)=O)c1C
The “hERG current change (%, negative = inhibition) at 1uM” value of the first is higher: 9.95% for the first, 5.91% for the second.

First: O=C(COc1c(Cl)cccc1Cl)NN1C(=O)CSC1=S
Second: COc1ccc(Cl)cc1N=Cc1c(O)cc(C)oc1=O
The “hERG current change (%, negative = inhibition) at 1uM” value of the first is lower: 9.68% for the first, 11% for the second.

Going from `O=C(O)CNC(=O)c1ccccc1Br` to `C/C=C/C(=O)N1c2ccc(C)cc2C(C)=CC1(C)C`, the “hERG current change (%, negative = inhibition) at 1uM” value falls from 11.6% to 6.83%.

Compared with `Fc1ccc(/C=N/c2c(-c3ccc(F)cc3)nc3n2CCS3)cc1`, `CCc1nnc(N/N=C/c2ccc(N3CCC(C)CC3)c([N+](=O)[O-])c2)n1N` is higher in “hERG current change (%, negative = inhibition) at 1uM” value: 3.18% for the first, 8.15% for the second.

In the case of `CCc1nc(-c2ccc(OC)c(OC)c2)cc2cc(OC)c(OC)cc12`, the “hERG current change (%, negative = inhibition) at 1uM” value is reported as 14.2%.
